# From ChEMBL document CHEMBL4888484, “Replenishing the malaria drug discovery pipeline: Screening and hit evaluation of the MMV Hit Generation Library 1 (HGL1) against asexual blood stage Plasmodium falciparum ,using a nano luciferase reporter read-out” (2022)
# Screen size: about 150,000 compounds; about 540 (0.36%) showed an effect of 50% or more. The list shows a part of the results.
# System: Plasmodium falciparum
# Assay: Primary screen in NF54 nanoGlo assay, in single point, at 2uM, 72h; a lower Z score goes with more inhibition
# Type: functional, Erythrocyte
# Settings: timepoint 72 hour
Structure (SMILES),% Inhibition [%],Z score
COc1nc(N(C)CC2(CO)CCC2)ncc1F,-5,0.7
CCC(C(=O)N1C2CCC1CC(n1ccnc1)C2)c1ccccc1 (stereo not given),8,-1.03
C[C@@H]1COCCN(C(=O)c2ccnc(OC(F)F)c2)C1,7,-0.88
CC1CCN(Cc2ccccc2)CC1NS(=O)(=O)c1c(C2CC2)cnn1C (stereo not given),-3,0.26
CC(=O)Nc1c(-c2ccc(F)cc2)c(C)nn1-c1ccc(C(=O)Nc2nc(C)cs2)cc1,-1,0.19
CCN(Cc1nc(C(C)C)no1)S(=O)(=O)c1ccc(O)c(C(=O)O)c1,-6,0.86
c1c[nH]c(CNc2ccc(N3CCc4sccc4C3)cc2)n1,23,-3
Cn1ccnc1[C@@]1(CNC(=O)c2c(C3CC3)cnn2C)NC(=O)NC1=O,-20,2.11
O=S(=O)(Cc1ccon1)N1CCN(Cc2cccnc2)CC1,39,-5.25
CCN(C(=O)N[C@H]1CC(=O)N(c2ccc3c(c2)OCCO3)C1)C1CCCCC1,10,-1.23
COc1ccc(CNC(=O)c2ccc(-n3nnc4cccnc43)c(C)c2)cc1,4,-0.49
Clc1cnn(CCc2nc(-c3ccn4c3CCCC4)no2)c1,7,-1.19
Cc1ccccc1NS(=O)(=O)c1c(C)sc(C)c1-c1onc(C)c1C,-8,1.34
CC(OC1CCCCCC1)C(=O)N1CCCC(c2nnn[nH]2)C1 (stereo not given),-7,1.25
COc1ccc(CN2C[C@@H](O)C[C@H]2c2nnc3n2CCN(C(=O)C(C)C)C3)cc1C,-1,0.22
C#CCNC(=O)N(C)CCOCC1CC1,5,-0.77
Cc1cc(C(=O)Nc2nc(-c3ccc4c(c3)CCCC4)cs2)no1,2,-0.21
CCCNC(=O)c1coc(CN2CCN(Cc3ccccc3F)CC2)n1,-16,1.51
CCc1nc(C(C)C)ccc1C(=O)N1CCO[C@@H]2CCN(CC)C[C@@H]21,-2,0.42
CCc1nc2c(c(N3CCCC3)n1)C1(CCCC1)Cc1ccccc1-2,-2,0.23
O=C(c1cc2ccccc2o1)N1CCC(COc2cc3c(nn2)CCCC3)CC1,-1,0.13
C=CCN(CC(=O)N(CCc1ccccc1)Cc1ccco1)C(=O)Nc1c(C)cccc1C,-17,1.98

Structure (SMILES),% Inhibition [%],Z score
COCCCNC(=O)c1cn(CCc2ccccn2)cc(C(=O)NC2CCCCCCC2)c1=O,1,-0.11
O=C(CCc1ccc(-c2ccccc2)cc1)N[C@H]1CCOC1,-15,1.36
CCc1ccccc1OC(=O)c1csc(C)n1,2,-0.32
CC(C)(F)C(=O)N1CCC(OCc2ccc(Cl)c(Cl)c2)CC1,4,-0.36
Oc1cc(-n2ccnc2-c2cccnc2)cc(F)c1F,-6,0.59
Cc1ccnc(C)c1C(=O)N1CCC(N2CCN(c3ncc(C(F)(F)F)cc3Cl)[C@@H](C)C2)CC1,-11,1.4
CCCc1nnc(NC[C@@H]2CCCN3CCCC[C@H]23)o1,-10,1.67
Cc1c(C(=O)NCc2nccs2)ccn1C,-12,2.37
CN1CCC[C@H]1C(=O)N1CCC2(CCC(=O)N(CCc3ccccn3)C2)CC1,-10,1.29
COc1ccc(C)cc1CN(C)[C@@H](C)C(N)=O,-11,1
Cn1ncnc1COc1ccc(OCc2ccccc2)cc1,4,-0.39
CN(Cc1cccnc1)C(=O)[C@@]1(C)CC1(Cl)Cl,-10,1.66
CC[C@]1(C)N=C(Nc2cccc3ccccc23)OC1=O,-3,0.4
COC(=O)c1cc(CNc2ccc(F)cn2)c[nH]1,-3,0.4
CN1CCCN(C(=O)CCc2nc3ccccc3o2)CC1,-10,1.48
CCOC(=O)N1CCc2c(sc(NCc3cccc(F)c3)c2C(=O)Nc2cc(Cl)ccc2OC)C1,-3,0.54
Cc1ccc(Cl)cc1NS(=O)(=O)c1cc(-c2cc(C(F)(F)F)on2)sc1C,-4,0.6
CC(C)C[C@@H](c1cccnc1)n1cnc2ccncc2c1=O,-9,0.98
CC1CCN(c2nc(-c3ccc(F)cc3)c3c(N)n(-c4ccc(F)cc4)nc3n2)CC1,1,-0.13
COc1cccc(CNC(=O)c2cnc(-c3csc(C)n3)nc2O)c1,-1,0.2
Cc1cc(C)nc(NC(=O)c2cccc(S(=O)(=O)N3CCOCC3)c2)n1,-8,1.43
O=C(Nc1cccc(F)c1)N1Cc2cccn2-c2ccccc21,11,-1.41

Structure (SMILES),% Inhibition [%],Z score
O=C(C[C@@H]1COC2(C1)CN(S(=O)(=O)c1ccccc1)C2)NCc1ccncc1,-4,0.57
COc1ccc([C@H]2NCCc3c2[nH]c2ccc(OCc4ccccc4)cc32)cc1COc1cccc(C)c1C,-5,0.48
CCCC1(CO)CCN(C(=O)c2nc(C)c[nH]2)CC1,2,-0.24
CC1CCC(C(N)=O)CN1C(=O)c1cc(-c2ccccc2)cs1 (stereo not given),-15,1.79
CN(Cc1cccnc1)C(=O)[C@@]12CCCC=C1N(c1ccccc1)C(=O)CC2,-10,1.02
COC(=O)C1CCN2C(=O)N(c3ccc(-c4csc(C)n4)cc3)C(=O)C2C1 (stereo not given),-3,0.64
C[C@@H]1CN(Cc2ccc(CN(C)C(=O)c3cocn3)cc2)C[C@H](C)O1,16,-1.92
CCC(CC)n1nc(C)cc1NC(=O)CN1CCOC1=O,-12,1.1
CCCC[C@H](O)CCC(=O)N1CCN(C(C)(C)CO)CC1,-6,0.85
CC(=Cc1ccc(C)cc1)C(=O)N1CC2(CC(=O)Nc3nccn32)C1,-22,2.39
CC(C)NC(=O)CN(C[C@H](O)c1ccc(O)c(CO)c1)C(C)(C)C,-14,2.07
Cc1cccc(CC(=O)NC2CCC(n3cccn3)CC2)c1 (stereo not given),-9,1.85
CN1CCC(n2ncc3[nH]c(-c4ccc(C(F)(F)F)cc4)nc32)CC1,97,-17.43
COc1ccc(C(=O)N[C@](C)(c2noc(C)n2)C2CC2)c(O)c1,-13,2.33
CC[C@H]1C(=O)NCCN1Cc1nnn(-c2ccccc2)c1C1CC1,-3,0.66
Cn1cc(C(=O)Nc2cccnc2C2CC2)ccc1=O,-7,1.17
CCCCN1C(=O)C2(CCOCC2)Nc2ccccc21,5,-0.85
Cc1ccccc1C1CC1C(=O)NCC(=O)Nc1ccc(O)cc1 (stereo not given),-15,1.32
Cc1ccc(C(=O)Nc2ccnn2C[C@H]2CCOC2)o1,-13,1.48
COC(=O)c1nc(CCNC(=O)OC(C)(C)C)sc1C,-16,3.2
CC(C)(CO)N1CCN(c2ncc(-c3ccccc3)s2)CC1,8,-1.21
C=C(C)COc1cccc(NC(=O)CC)c1,-9,1.62

Structure (SMILES),% Inhibition [%],Z score
Cc1cc(C(=O)N2CC(Oc3nc4ccccc4s3)C2)c(C)o1,-10,1.67
CCCCn1c(N)c(N(CC)C(=O)c2cc(-c3ccc(OC)cc3)nc3ccccc23)c(=O)[nH]c1=O,-2,0.22
O=C1NCCCC[C@@H]1NCc1cc2ccc(Cl)cc2nc1N1CCOCC1,9,-1.36
CCCCS(=O)(=O)N1C[C@@H]2OC(=O)N(CCc3ccccn3)[C@@H]2C1,-14,2.56
CCn1cnnc1CN(C)C(=O)c1cc(-c2cnn(C)c2)nc2c(C)c(C)ccc12,-6,1.15
COc1nc(NCC2(N(C)C)CCCCC2)ncc1F,0,-0.06
COc1cc(F)c(-c2cccc(C(=O)NCCN3CCNC3=O)c2)cc1F,-17,3.16
Cc1ccncc1CCCN1CCO[C@H](c2nnc(C(C)C)o2)C1,-17,1.97
C[C@@]1(O)COC2(CN(C(=O)CCc3conc3-c3ccccc3)C2)C1,-4,0.68
Cc1nc(CCN(C)CC(C)(C)CN2CCCC2)no1,-22,3.55
O=C(Cc1c(F)cccc1Cl)NC1(c2cccs2)CCOCC1,5,-1.02
CCc1ccccc1NC(=O)c1cnc(-c2ccc(C(F)(F)F)cc2)nc1C,-15,1.54
CS(=O)(=O)Cc1nc(CN2CCOC[C@H]2C2CC2)cs1,-6,1.05
O=C(CCCn1cncn1)N[C@H]1COc2cccc(Cl)c21,3,-0.35
CCOCC(=O)N[C@@H](CC)c1ncccc1C,-2,0.5
O=C(c1cccnc1)N1C[C@H]2CC[C@@H](C1)N(C(=O)NCc1ccc(F)cc1)C2,-5,1
Cn1ccnc1C1(CNC(=O)CCC2CCCOC2)NC(=O)NC1=O (stereo not given),-11,1.16
CCn1cc(CNC(=O)[C@H]2C[C@@](C)(C(=O)OC)N(C)[C@H]2c2ccccc2C)cn1,-2,0.46
CC(C)C(=O)N(Cc1ccc(OS(=O)(=O)C(C)C)cc1)CC1CC1,-21,4
